{"source": "PubChem BioAssay AID686978", "about": "(National Center for Advancing Translational Sciences (NCATS), 2013)", "note": "Out of some 420,000 compounds screened, about 64,000 (15%) were called active. Inconclusive results, whose numbers are uncertain, are shown with a selection of clear calls. The call rests on the fitted dose curve; in most records, active means well fitted inhibition curve with a large enough effect; inconclusive means small, poorly fitted or top-dose-only effect; inactive means flat fitted curve, though single readings scatter. No potency is given beside an inconclusive call; the fits are too rough. On the % scale 0 is the no-effect control and ±100 the full control effect; potency means the concentration at half of the fitted maximal effect; tags describe the fitted curve by direction and shape.", "data": [{"test": "qHTS for Inhibitors of human tyrosyl-DNA phosphodiesterase 1 (TDP1): qHTS in cells in absence of CPT; further: nearly all actives have a fitted effect of over 55% in size", "settings": "DT40 Tdp1-/- hTDP1 cells, no CPT, ATP luminescence, 48 h; activity change, negative = growth inhibition: at 46.2 µM (top of the series) unless noted", "in_short": "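Chicken DT40 Tdp1-/- cells stably complemented with human TDP1 were seeded at 400 cells/well with DMSO in place of 20 nM camptothecin. After compound pinning, cells grew at least 48 hr at 37 °C; viability read by CellTiter-Glo luminescence.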", "values": [{"smiles": "CC(C)(C)OC(=O)N(Cc1ccco1)S(=O)(=O)c1ccccc1Br", "activity change, negative = growth inhibition": "inactive: 3%"}, {"smiles": "C=CCNC(=S)N1CCN(c2ncc3c(=O)c(C(=O)O)cn(CC)c3n2)CC1", "activity change, negative = growth inhibition": "inactive: -28.2%"}, {"smiles": "Oc1ccc(Cc2ccccc2)c2cccnc12", "Potency": "active: 2.06 µM"}, {"smiles": "Cc1nn(C(=O)COc2ccccc2)c(C)c1Sc1ccccc1", "activity change, negative = growth inhibition": "inactive: -16.6%"}, {"smiles": "Cc1sc2ncnc(Sc3ccccc3C(=O)Nc3ccc(C#N)cc3)c2c1C", "Potency": "active: 20.6 µM"}, {"smiles": "COc1cccc(CN(C)CC(=O)Nc2cccc(C(F)(F)F)c2)c1OC", "Potency": "inconclusive [inhibitor, single point]"}, {"smiles": "COc1ccc(Br)cc1/C=N/NC(=O)c1cc(OC)c(OC)c(OC)c1", "Potency": "inconclusive [inhibitor, single point]"}, {"smiles": "CC(=O)NCC(=O)OCC(=O)c1ccc(C)c(C)c1", "activity change, negative = growth inhibition": "inactive: -7.03%"}, {"smiles": "Cc1ccc(C(=O)NC(=S)N(C)Cc2ccccc2)cc1", "Potency": "inconclusive [inhibitor, single point]"}, {"smiles": "CC(=O)Nc1c(-c2ccccc2)nc2ccc(Cl)cn12", "activity change, negative = growth inhibition": "inactive: 5.99%"}, {"smiles": "CCCCOc1ccc(C(=O)N2CCC(c3nc4ccccc4o3)CC2)cc1", "Potency": "active: 13 µM"}, {"smiles": "O=[N+]([O-])c1ccc(N=Cc2c(O)ccc3ccccc23)cc1", "Potency": "inconclusive [inhibitor, single point]"}, {"smiles": "O=c1oc(-c2ccc(F)cc2)nc2ccsc12", "activity change, negative = growth inhibition": "inactive: -20.6%"}, {"smiles": "COc1ccc(Br)cc1/C=N/NC(=O)c1cccnc1", "Potency": "inconclusive [inhibitor, partial curve, poor fit]"}, {"smiles": "O=c1[nH]c2ccc(Cl)cc2c(-c2ccccc2)c1[N+](=O)[O-]", "activity change, negative = growth inhibition": "inactive: -23.2%"}, {"smiles": "CCc1nnc(SCC(=O)Nc2nc(C)c(C(=O)N(C)C)s2)n1CC", "activity change, negative = growth inhibition": "inactive: 7.44%"}, {"smiles": "OC(CCN1CCC2CCC(C2)C1)c1ccc(Br)cc1", "note": "(stereo not given)", "activity change, negative = growth inhibition": "inconclusive: -30.8% [inhibitor]"}, {"smiles": "Cc1ccc(S(=O)(=O)CCC(=O)Nc2cccc(S(=O)(=O)N3CCCCCC3)c2)cc1", "Potency": "inconclusive [inhibitor, single point]"}, {"smiles": "Cc1ccccc1-c1noc(-c2cccnc2N2CCN(c3ccccc3)CC2)n1", "Potency": "inconclusive [inhibitor, partial curve]"}, {"smiles": "CCCNC(=O)C1(C)CCCN(Cc2ccccc2N(C)C)C1", "note": "(stereo not given)", "Potency": "inconclusive [inhibitor, single point]"}, {"smiles": "Cc1ccc(S(=O)(=O)CC2CSc3nc(N)cc(=O)n32)cc1", "note": "(stereo not given)", "activity change, negative = growth inhibition": "inactive: -9.22%"}, {"smiles": "C=CC[C@@H](CC(=O)NCCO)C(=O)NC[C@H](OC(=O)[C@@H](CC=C)CC(=O)OC(C)(C)C)c1ccccc1", "Potency": "inconclusive [inhibitor, single point]"}, {"smiles": "COc1cccc(C(=O)Nc2cccc(-c3cn4ccsc4n3)c2)c1OC", "Potency": "inconclusive [inhibitor, single point]"}, {"smiles": "COc1ccc(NC(C)=O)cc1CNC(=O)COc1c(C)c(C)cc(C)c1C", "Potency": "inconclusive [inhibitor, partial curve, poor fit]"}, {"smiles": "CC(Oc1ccc([N+](=O)[O-])cc1)C(=O)NCCCN1CCOCC1", "note": "(stereo not given)", "activity change, negative = growth inhibition": "inactive: -14.7%"}, {"smiles": "COc1ccc(CN2CCN(S(=O)(=O)c3ccc(C)cc3)CC2)cc1OC", "Potency": "inconclusive [inhibitor, full curve]"}, {"smiles": "Cc1c(C)c2ccc(OCC(=O)NC3CCN(Cc4ccccc4)CC3)c(C)c2oc1=O", "Potency": "inconclusive [inhibitor, single point]"}, {"smiles": "O=C(C[n+]1ccccc1Cl)c1ccc2c(c1)CCCC2", "Potency": "inconclusive [inhibitor, partial curve]"}, {"smiles": "COc1cc(/C=N/N=C2/NC(=O)C(Cc3ccc(F)cc3)S2)ccc1O", "note": "(stereo not given)", "Potency": "inconclusive [inhibitor, single point]"}, {"smiles": "Nc1c(C(=O)NCc2ccc(Cl)cc2)sc2nc3c(c(C(F)(F)F)c12)CCC3", "Potency": "inconclusive [inhibitor, single point]"}, {"smiles": "Cc1ccc(NC(=O)CSCC(=O)N=c2sccn2C)cc1", "activity change, negative = growth inhibition": "inconclusive: -33.7% [inhibitor]"}, {"smiles": "CCc1cccc(NS(=O)(=O)c2ccc(-n3cccn3)cc2)c1", "Potency": "active: 20.6 µM"}, {"smiles": "Cc1ccc2c(C)nc(Nc3nc(CSc4nc5ccccc5[nH]4)cc(=O)[nH]3)nc2c1", "Potency": "active: 11.6 µM"}, {"smiles": "COc1cc(/C=N/NC(=S)Nc2cccnc2)cc(OC)c1O", "Potency": "inconclusive [inhibitor, single point]"}, {"smiles": "CCN(CC)CCCNC(=O)CCn1nc(-c2ccccc2)ccc1=O", "activity change, negative = growth inhibition": "inactive: -21.7%"}, {"smiles": "O=C(Nc1ccc(F)cc1F)c1cc(-c2ccc(Cl)cc2)on1", "Potency": "inconclusive [inhibitor, partial curve, poor fit]"}, {"smiles": "CCOC(=O)c1ccc(NC(=O)CCn2c(=O)c3cccn3c3cccnc32)cc1", "Potency": "inconclusive [inhibitor, partial curve]"}, {"smiles": "Nc1nonc1-n1nnc(C(=O)N/N=C/c2cccs2)c1-c1ccc2c(c1)OCO2", "activity change, negative = growth inhibition": "inactive: -27.9%"}, {"smiles": "N#CNC(=Nc1ccccc1)SCc1ccc(C(=O)O)cc1", "activity change, negative = growth inhibition": "inactive: -23.2%"}, {"smiles": "COc1ccc(-c2nnc(SCC(=O)Nc3cc(C)on3)o2)cc1", "Potency": "inconclusive [inhibitor, single point]"}, {"smiles": "CCc1ccc(NC(=O)CSc2ccc(-c3ccccn3)nn2)cc1", "Potency": "active: 23.1 µM"}, {"smiles": "COc1ccc2c(CC(=O)OCC(=O)Nc3ccc4c(c3)OCO4)coc2c1", "Potency": "inconclusive [inhibitor, single point]"}, {"smiles": "Cc1csc(NC(=O)CCc2c(C)nc3cc(-c4ccc(Cl)cc4)nn3c2C)n1", "Potency": "active: 13 µM"}, {"smiles": "CCOc1ccc(NC(=O)CN2CCN(CC(=O)c3ccc(OCC)cc3)CC2)cc1", "activity change, negative = growth inhibition": "inconclusive: -30.4% [inhibitor]"}, {"smiles": "Cc1ccc(OCc2cc(C(=O)NCC(C)c3ccccc3)no2)cc1C", "note": "(stereo not given)", "Potency": "inconclusive [inhibitor, single point]"}, {"smiles": "OCC(Cc1ccccc1)Nc1c2ccccc2nc2ccccc12", "note": "(stereo not given)", "Potency": "active: 16.4 µM"}, {"smiles": "COC(=O)c1cc(-c2ccc(S(=O)(=O)N3CCCCC3)cc2)c(C(F)(F)F)s1", "Potency": "active: 23.1 µM"}, {"smiles": "O=C(C(=NNc1ccccc1)C(=S)Nc1ccccc1)c1ccccc1", "Potency": "inconclusive [inhibitor, single point]"}, {"smiles": "COC(=O)c1ccc2nc(-c3cccc(Br)c3)c(Cc3ccc(OC)cc3C)n2c1", "Potency": "inconclusive [inhibitor, single point]"}, {"smiles": "COC(=O)Oc1nsnc1N1CCOCC1", "Potency": "inconclusive [inhibitor, single point]"}, {"smiles": "O=C(Nc1ccc(NC(=O)C2CCCCC2)nc1)c1cccc(F)c1", "Potency": "inconclusive [inhibitor, single point]"}, {"smiles": "O=C(NC(=S)NC1CCCc2ccccc21)c1ccco1", "note": "(stereo not given)", "Potency": "inconclusive [inhibitor, single point]"}, {"smiles": "CCCNC(=O)NC(=O)CSc1nc2ccccc2n1CC(C)C", "activity change, negative = growth inhibition": "inconclusive: -32.1% [inhibitor]"}, {"smiles": "COc1ccc(N[C@@H]2CCN3C(=O)c4ccccc4[C@@H]3C[C@H]2O)cc1", "activity change, negative = growth inhibition": "inactive: -14.6%"}, {"smiles": "COc1ccc(/C=C/C(=O)Oc2cccc(/C=N/NC(=O)Cc3ccc(Br)cc3)c2)cc1", "Potency": "inconclusive [inhibitor, partial curve, poor fit]"}, {"smiles": "CC1CCc2sc(C(=O)N(C)CC(=O)Nc3cccc(F)c3)cc2C1", "note": "(stereo not given)", "Potency": "inconclusive [inhibitor, single point]"}, {"smiles": "CCOC(=O)C(CSCC(=O)c1ccc(Cl)cc1Cl)NC(=O)OC(C)(C)C", "note": "(stereo not given)", "Potency": "inconclusive [inhibitor, partial curve, poor fit]"}, {"smiles": "CCC12CN3CC(CC)(CN(C1)C3c1ccc([N+](=O)[O-])o1)C2=O", "note": "(stereo not given)", "activity change, negative = growth inhibition": "inactive: -9.29%"}, {"smiles": "Cc1ccc(C(=O)COC(=O)CNS(=O)(=O)c2ccccc2)cc1[N+](=O)[O-]", "activity change, negative = growth inhibition": "inconclusive: -26% [inhibitor]"}, {"smiles": "CCOC(=O)c1ccccc1NC(=O)CSc1nc2ccccc2c(=O)[nH]1", "activity change, negative = growth inhibition": "inactive: -14%"}, {"smiles": "COc1ccc(CC(NC(C)=O)C(=O)NC2CCN(c3ncccc3[N+](=O)[O-])CC2)cc1", "note": "(stereo not given)", "activity change, negative = growth inhibition": "inactive: 0.719%"}, {"smiles": "O=S(=O)(/N=C(/c1ccccc1)N1CCCCC1)c1ccccc1", "activity change, negative = growth inhibition": "inconclusive: -16.5% [inhibitor]"}, {"smiles": "CCC1C(=O)Nc2ccccc2N1C(=O)COc1ccccc1", "note": "(stereo not given)", "activity change, negative = growth inhibition": "inactive: 0.867%"}, {"smiles": "O=C(NCCc1ccccc1F)C1C(=O)Nc2ccccc2C(=O)N1C1CCCCC1", "note": "(stereo not given)", "activity change, negative = growth inhibition": "inactive: -10.3%"}, {"smiles": "Cc1cc(C)c(C)c(S(=O)(=O)N2CCC(C(=O)N(C)Cc3nc4ccccc4c(=O)[nH]3)CC2)c1C", "Potency": "inconclusive [inhibitor, full curve, poor fit]"}, {"smiles": "COc1ccc(CC(=O)NCC2CCCN(Cc3ccc(OC(F)(F)F)cc3)C2)cc1", "note": "(stereo not given)", "Potency": "active: 18.4 µM"}, {"smiles": "O=C(c1ccco1)N1CCN=C1SCc1cccnc1", "activity change, negative = growth inhibition": "inactive: 3.97%"}, {"smiles": "C#CCSc1nc(-c2ccccc2)cc(-c2ccccc2)c1C#N", "Potency": "inconclusive [inhibitor, single point]"}, {"smiles": "CCc1cccc(NC(=O)CCS(=O)(=O)c2cccc3nonc23)c1", "activity change, negative = growth inhibition": "inactive: -3.69%"}, {"smiles": "COc1ccc(S(=O)(=O)N2CCC(C(=O)NC3(C)CCS(=O)(=O)C3)CC2)cc1OC", "note": "(stereo not given)", "activity change, negative = growth inhibition": "inactive: -29.6%"}, {"smiles": "NNC(=O)c1cc2c(s1)-c1cc(Cl)ccc1SC2", "Potency": "inconclusive [inhibitor, single point]"}, {"smiles": "CSc1ccc(NC(N)=S)cc1", "Potency": "inconclusive [inhibitor, partial curve]"}, {"smiles": "Cc1cccc(N/N=C/c2ccc(O)c(O)c2O)c1", "Potency": "inconclusive [inhibitor, single point]"}, {"smiles": "CCOC(=O)c1c(C)oc2c1c(C=NCC1CCCO1)c(O)c1ccccc12", "note": "(stereo not given)", "Potency": "active: 18.4 µM"}, {"smiles": "COc1ccc(-c2nc3ccc(Cl)cn3c2Cc2ccccc2C(F)(F)F)cc1OC", "Potency": "active: 16.4 µM"}]}]}
